Laboratory results from the antibiotic and cytotoxicity screens of Wong et al. (2023).
Some of the results follow.

Tests used:
HSkMC = human skeletal muscle cells; assay: cytotoxicity call (relative viability < 0.9); details: 10 µM
HepG2 = assay: cytotoxicity call (relative viability < 0.9); details: 10 µM
S. aureus RN4220 = assay: growth inhibition call (relative growth <= 0.2); details: 50 µM

SMILES | cytotoxicity call (HSkMC) | cytotoxicity call (HepG2) | growth inhibition call (S. aureus RN4220)
COc1ccc([Si](C)(C)[C@@H]2[C@@H](CCO)O[C@]3(C(=O)N(Cc4ccccc4)c4ccc(N(C=O)c5ccccc5)cc43)[C@H]2C)cc1 | inactive | active | inactive
COc1ccc(NC(=O)Nc2ccc3c(c2)CC(=O)N([C@H](C)CO)C[C@H](C)[C@H](CN(C)Cc2ccc(Oc4ccccc4)cc2)O3)cc1 | inactive | active | inactive
O=C(O)c1cccc(-c2ccccc2)c1 | inactive | inactive | inactive
Cc1noc(C)c1NC(=O)N(C)C[C@H]1Oc2ccc(NC(=O)CCN3CCOCC3)cc2C(=O)N([C@H](C)CO)C[C@H]1C | inactive | inactive | inactive
CCCCNC(=O)N1CCN(C)CC1 | inactive | inactive | inactive
CC(C)C#Cc1ccc2c(c1)O[C@H](CN(C)C(=O)c1cccc(F)c1)[C@H](C)CN([C@@H](C)CO)S2(=O)=O | inactive | inactive | inactive
C[C@@H]1CCCCO[C@H](CN(C)C(=O)NC2CCCCC2)[C@H](C)CN([C@@H](C)CO)C(=O)c2cc(NS(=O)(=O)c3ccc(F)cc3)ccc2O1 | inactive | inactive | inactive
C[C@@H]1CCCCO[C@@H](CN(C)C(=O)Nc2ccc(F)cc2)[C@H](C)CN([C@@H](C)CO)C(=O)c2cc(NS(=O)(=O)c3cccs3)ccc2O1 | inactive | inactive | inactive
O=C(O)CNS(=O)(=O)c1ccccc1 | inactive | inactive | inactive
COc1ccc(S(=O)(=O)Nc2ccc3c(c2)CC(=O)N([C@@H](C)CO)C[C@@H](C)[C@H](CN(C)S(=O)(=O)c2cccs2)O3)cc1 | inactive | inactive | inactive
Cc1cc(C)n2nc(N)nc2n1 | inactive | inactive | inactive
Cc1noc(C)c1S(=O)(=O)Nc1ccc2c(c1)C(=O)N([C@@H](C)CO)C[C@@H](C)[C@H](CN(C)C(=O)Nc1ccc(F)cc1)OCCCC[C@@H](C)O2 | inactive | inactive | inactive
O=C(C[C@@H]1CC[C@@H](NS(=O)(=O)c2ccc(F)cc2)[C@H](CO)O1)N1CCC(Cc2ccccc2)CC1 | inactive | inactive | inactive
CC(C)NC(=O)Nc1ccc2c(c1)C(=O)N([C@H](C)CO)C[C@H](C)[C@H](CN(C)CC1CCCCC1)OCCCC[C@@H](C)O2 | inactive | inactive | inactive
C[C@H]1CN([C@@H](C)CO)C(=O)c2cc(NC(=O)CCCN(C)C)ccc2O[C@@H]1CN(C)S(=O)(=O)c1ccccc1 | inactive | inactive | inactive
C[C@@H]1CN([C@@H](C)CO)C(=O)c2cc(NS(C)(=O)=O)ccc2O[C@H]1CN(C)S(=O)(=O)c1cccs1 | inactive | inactive | inactive
Cc1noc(C)c1S(=O)(=O)Nc1ccc2c(c1)C(=O)N([C@H](C)CO)C[C@@H](C)[C@@H](CN(C)Cc1ccc3c(c1)OCO3)O2 | inactive | inactive | inactive
CC(C)(C)OC(=O)N1CCC(N)CC1 | inactive | inactive | inactive
CCCc1nc(C)c2c(=O)[nH]c(-c3cc(S(=O)(=O)N4CCN(CC)CC4)ccc3OCC)nn12.Cl | inactive | inactive | inactive

SMILES | cytotoxicity call (HSkMC) | cytotoxicity call (HepG2) | growth inhibition call (S. aureus RN4220)
COCCNC(=O)C[C@H]1C[C@H]2c3cc(NS(C)(=O)=O)ccc3O[C@H]2[C@H](CO)O1 | inactive | inactive | inactive
C[C@@H]1CCCCO[C@@H](CN(C)CC2CCCCC2)[C@H](C)CN([C@@H](C)CO)C(=O)c2cc(NS(=O)(=O)c3ccc(Cl)cc3)ccc2O1 | inactive | inactive | inactive
C[C@H](CO)N1C[C@H](C)[C@@H](CN(C)C(=O)Nc2ccccc2)Oc2ccc(NC(=O)CCCCCC(=O)Nc3ccccc3N)cc2C1=O | inactive | inactive | inactive
C[C@H]1CN([C@@H](C)CO)C(=O)CCCn2nncc2CO[C@@H]1CN(C)S(=O)(=O)c1ccccc1C#N | inactive | inactive | inactive
CO[C@H]1CN(C)C(=O)c2cc(NS(=O)(=O)CC(F)(F)F)ccc2OC[C@H](C)N(Cc2nccs2)C[C@@H]1C | inactive | inactive | inactive
CN(C)S(=O)(=O)c1ccc(C#N)cc1 | inactive | inactive | inactive
CN1C(=O)c2cc(NC(=O)C3CCOCC3)ccc2OC[C@@H]2O[C@H](CC(=O)NCCc3ccncc3)CC[C@H]21 | inactive | inactive | inactive
C[N+](C)(C)CCCCCCNC(=O)[C@H]1C[C@H]2C(=O)N3CCC[C@H]3C(=O)N2[C@H]1c1cccc(OCCO)c1 | inactive | inactive | inactive
COC(=O)[C@H](Cc1ccccc1)N1CC2=C[C@@H](C3CC3)n3c(=O)n(C)c(=O)n3[C@H]2[C@@H]1[C@@H](O)CCn1cc(C(=O)NO)nn1 | inactive | inactive | inactive
CN1C(=O)Cc2cc(NS(C)(=O)=O)ccc21 | inactive | inactive | inactive
C[C@@H]1CCCCO[C@@H](CN(C)S(C)(=O)=O)[C@H](C)CN([C@@H](C)CO)C(=O)c2cc(NC(=O)c3ccncc3)ccc2O1 | inactive | inactive | inactive
C[C@@H]1CCCCO[C@@H](CN(C)C(=O)Nc2ccccc2)[C@H](C)CN([C@H](C)CO)C(=O)c2cc(NS(=O)(=O)c3ccccc3)ccc2O1 | inactive | inactive | inactive
COc1ccc2c3c([nH]c2c1)[C@@H](CO)N(CC1CCCCC1)C[C@]13CCN(CC1)C(=O)NC1CCCC1 | inactive | inactive | inactive
CC1CCC(C(C)C)C(=O)C1 (stereo not drawn) | inactive | inactive | inactive
C[C@H]1CN([C@@H](C)CO)C(=O)c2cc(C#CCN(C)C)cnc2O[C@H]1CN(C)S(=O)(=O)c1cn(C)cn1 | inactive | inactive | inactive
C[C@@H]1CN([C@H](C)CO)C(=O)c2cc(NC(=O)C3CCCCC3)ccc2O[C@H]1CN(C)Cc1ccc(-c2ccccc2)cc1 | inactive | inactive | inactive
CCS(=O)(=O)N1CC[C@]2(CC1)CN([C@@H](CO)c1[nH]c3cc(ccc3c12)OC)S(=O)(=O)c1cn(cn1)C | inactive | inactive | inactive
O=C(C[C@@H]1CC[C@H]2[C@@H](COC[C@@H](O)CN2S(=O)(=O)c2cccc(F)c2)O1)NCc1ccc2c(c1)OCO2 | inactive | inactive | inactive
C[C@H](CO)N1C[C@H](C)[C@@H](CN(C)S(=O)(=O)c2ccc(F)cc2)OCCCC[C@H](C)Oc2ccc(NC(=O)Nc3ccc(C(F)(F)F)cc3)cc2C1=O | inactive | inactive | inactive

SMILES | cytotoxicity call (HSkMC) | cytotoxicity call (HepG2) | growth inhibition call (S. aureus RN4220)
COc1ccc2c3c(n(c2c1)C)[C@@H](CO)N(C[C@]13CN(C1)S(=O)(=O)c1cn(cn1)C)C(=O)Nc1ccc(cc1)F | inactive | inactive | inactive
OCCN(CCO)c1nc(N2CCCCC2)c2nc(N(CCO)CCO)nc(N3CCCCC3)c2n1 | inactive | inactive | inactive
C=CCOC(=O)[C@H]1[C@@H]2C(=O)O[C@@H](c3ccccc3)[C@@H](c3ccccc3)N2[C@@H](c2ccc(OCCOC(=O)[C@@H]3C[C@@H]4C(=O)N[C@@H](CC(C)C)C(=O)N4[C@@H]3c3ccc(O)cc3)cc2)[C@]12C(=O)Nc1ccccc12 | inactive | inactive | inactive
C[C@@H]1CN([C@H](C)CO)C(=O)CCCn2cc(nn2)CO[C@H]1CN(C)S(=O)(=O)c1cn(C)cn1 | inactive | inactive | inactive
Cc1c(C)c(C)c(CSc2ccccc2N)c(C)c1C | inactive | inactive | inactive
Cc1c(CN2CCC(Nc3ncnc4sc(CC(F)(F)F)cc34)CC2)ccc2c1cc(C#N)n2Cc1cn[nH]c1 | active | active | inactive
CC(C)=CCC/C(C)=C/CC1=C(C)C(=O)c2ccccc2C1=O | inactive | inactive | inactive
C[C@@H](N)CO | inactive | inactive | inactive
CC(C)NC(=O)Nc1ccc2c(c1)C(=O)N([C@H](C)CO)C[C@H](C)[C@@H](CN(C)C(=O)NC1CCCCC1)O2 | inactive | inactive | inactive
COc1ccc([C@@H]([C@H](Cc2ccccc2)OC(C)=O)N2C[C@@H](NC(=O)C(Cl)(Cl)Cl)[C@@H]3C(=NO[C@H]3c3ccccc3)[C@@H]2Cc2ccccc2)cc1 | inactive | inactive | inactive
O=C(C[C@@H]1C[C@@H]2c3cc(NC(=O)Cc4ccncc4)ccc3O[C@@H]2[C@H](CO)O1)NCc1ccc2c(c1)OCO2 | inactive | inactive | inactive
C[C@H](CO)N1C[C@H](C)[C@@H](CN(C)S(=O)(=O)c2cn(C)cn2)OCCCC[C@H](C)Oc2ccc(NS(=O)(=O)c3cn(C)cn3)cc2C1=O | inactive | inactive | inactive
CN(C)CCCNC(=O)C[C@H]1CC[C@@H]2[C@@H](COc3ccc(NC(=O)c4ccccc4F)cc3C(=O)N2C)O1 | inactive | inactive | inactive
Cc1ccc(S(=O)(=O)Nc2ccc3c(c2)C(=O)N([C@@H](C)CO)C[C@@H](C)[C@H](CN(C)S(=O)(=O)c2ccc(Cl)cc2)OCCCC[C@@H](C)O3)cc1 | inactive | inactive | inactive
O=C(C[C@@H]1C[C@@H]2c3cc(NC(=O)NC4CCCC4)ccc3O[C@@H]2[C@@H](CO)O1)NCc1ccc(-c2ccccc2)cc1 | inactive | inactive | inactive
C[C@@H]1CCCCO[C@@H](CN(C)C(=O)Nc2ccc(F)cc2)[C@H](C)CN([C@@H](C)CO)C(=O)c2cc(NC(=O)Nc3ccc(F)cc3)ccc2O1 | inactive | inactive | inactive
CC(C)CC#Cc1ccc2c(c1)O[C@H](CN(C)C(=O)Cc1ccccn1)[C@H](C)CN([C@H](C)CO)S2(=O)=O | inactive | inactive | inactive
Cc1ccc(S(=O)(=O)Nc2ccc3c(c2)C(=O)N([C@H](C)CO)C[C@H](C)[C@@H](CN(C)C(=O)C2CCCCC2)OCCCC[C@H](C)O3)cc1 | inactive | inactive | inactive
